Results are given in words; binding and its absence hold for the method and conditions named. Binding seen in cells or lysates may run through a third protein. Some results given as binding are weak or reduced against the parent protein; the word gives no strength.
T1: Nephrin (mouse (endogenous in MIN6 and mouse islets)) (UniProt Q9QZS7)
T1 sequence: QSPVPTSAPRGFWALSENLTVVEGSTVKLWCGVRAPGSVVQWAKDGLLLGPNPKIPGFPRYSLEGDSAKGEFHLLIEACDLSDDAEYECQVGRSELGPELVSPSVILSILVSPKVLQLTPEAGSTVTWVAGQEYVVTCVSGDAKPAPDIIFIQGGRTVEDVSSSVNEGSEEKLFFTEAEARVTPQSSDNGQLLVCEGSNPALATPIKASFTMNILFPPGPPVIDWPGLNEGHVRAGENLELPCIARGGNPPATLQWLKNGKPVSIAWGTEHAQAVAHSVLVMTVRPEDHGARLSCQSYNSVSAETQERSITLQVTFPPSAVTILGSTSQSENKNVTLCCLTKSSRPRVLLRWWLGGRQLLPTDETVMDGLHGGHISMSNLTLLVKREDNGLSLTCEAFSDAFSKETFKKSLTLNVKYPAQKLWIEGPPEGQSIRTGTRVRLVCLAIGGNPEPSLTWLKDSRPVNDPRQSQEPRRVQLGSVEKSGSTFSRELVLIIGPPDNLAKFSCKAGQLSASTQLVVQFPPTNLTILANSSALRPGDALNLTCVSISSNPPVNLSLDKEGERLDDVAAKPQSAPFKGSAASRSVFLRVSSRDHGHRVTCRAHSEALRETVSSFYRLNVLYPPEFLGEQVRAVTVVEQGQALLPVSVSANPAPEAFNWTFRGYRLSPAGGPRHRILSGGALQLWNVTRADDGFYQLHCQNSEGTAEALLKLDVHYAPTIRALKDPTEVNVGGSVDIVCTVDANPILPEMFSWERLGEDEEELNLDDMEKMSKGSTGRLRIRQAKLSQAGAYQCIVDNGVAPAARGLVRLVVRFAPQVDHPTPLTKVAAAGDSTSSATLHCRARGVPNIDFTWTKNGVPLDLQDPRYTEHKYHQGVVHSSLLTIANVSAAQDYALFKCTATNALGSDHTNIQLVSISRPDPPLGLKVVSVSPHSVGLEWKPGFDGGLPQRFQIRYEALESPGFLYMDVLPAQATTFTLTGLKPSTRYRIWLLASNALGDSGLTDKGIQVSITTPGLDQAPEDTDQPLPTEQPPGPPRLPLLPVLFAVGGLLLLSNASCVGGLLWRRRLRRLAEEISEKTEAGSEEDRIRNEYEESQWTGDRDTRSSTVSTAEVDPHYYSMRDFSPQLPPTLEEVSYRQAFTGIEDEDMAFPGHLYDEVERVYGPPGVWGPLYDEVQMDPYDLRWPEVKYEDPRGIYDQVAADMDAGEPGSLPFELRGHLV

Amino acid sequences for entries named in this document (tags omitted).
UniProt Q5SNZ0: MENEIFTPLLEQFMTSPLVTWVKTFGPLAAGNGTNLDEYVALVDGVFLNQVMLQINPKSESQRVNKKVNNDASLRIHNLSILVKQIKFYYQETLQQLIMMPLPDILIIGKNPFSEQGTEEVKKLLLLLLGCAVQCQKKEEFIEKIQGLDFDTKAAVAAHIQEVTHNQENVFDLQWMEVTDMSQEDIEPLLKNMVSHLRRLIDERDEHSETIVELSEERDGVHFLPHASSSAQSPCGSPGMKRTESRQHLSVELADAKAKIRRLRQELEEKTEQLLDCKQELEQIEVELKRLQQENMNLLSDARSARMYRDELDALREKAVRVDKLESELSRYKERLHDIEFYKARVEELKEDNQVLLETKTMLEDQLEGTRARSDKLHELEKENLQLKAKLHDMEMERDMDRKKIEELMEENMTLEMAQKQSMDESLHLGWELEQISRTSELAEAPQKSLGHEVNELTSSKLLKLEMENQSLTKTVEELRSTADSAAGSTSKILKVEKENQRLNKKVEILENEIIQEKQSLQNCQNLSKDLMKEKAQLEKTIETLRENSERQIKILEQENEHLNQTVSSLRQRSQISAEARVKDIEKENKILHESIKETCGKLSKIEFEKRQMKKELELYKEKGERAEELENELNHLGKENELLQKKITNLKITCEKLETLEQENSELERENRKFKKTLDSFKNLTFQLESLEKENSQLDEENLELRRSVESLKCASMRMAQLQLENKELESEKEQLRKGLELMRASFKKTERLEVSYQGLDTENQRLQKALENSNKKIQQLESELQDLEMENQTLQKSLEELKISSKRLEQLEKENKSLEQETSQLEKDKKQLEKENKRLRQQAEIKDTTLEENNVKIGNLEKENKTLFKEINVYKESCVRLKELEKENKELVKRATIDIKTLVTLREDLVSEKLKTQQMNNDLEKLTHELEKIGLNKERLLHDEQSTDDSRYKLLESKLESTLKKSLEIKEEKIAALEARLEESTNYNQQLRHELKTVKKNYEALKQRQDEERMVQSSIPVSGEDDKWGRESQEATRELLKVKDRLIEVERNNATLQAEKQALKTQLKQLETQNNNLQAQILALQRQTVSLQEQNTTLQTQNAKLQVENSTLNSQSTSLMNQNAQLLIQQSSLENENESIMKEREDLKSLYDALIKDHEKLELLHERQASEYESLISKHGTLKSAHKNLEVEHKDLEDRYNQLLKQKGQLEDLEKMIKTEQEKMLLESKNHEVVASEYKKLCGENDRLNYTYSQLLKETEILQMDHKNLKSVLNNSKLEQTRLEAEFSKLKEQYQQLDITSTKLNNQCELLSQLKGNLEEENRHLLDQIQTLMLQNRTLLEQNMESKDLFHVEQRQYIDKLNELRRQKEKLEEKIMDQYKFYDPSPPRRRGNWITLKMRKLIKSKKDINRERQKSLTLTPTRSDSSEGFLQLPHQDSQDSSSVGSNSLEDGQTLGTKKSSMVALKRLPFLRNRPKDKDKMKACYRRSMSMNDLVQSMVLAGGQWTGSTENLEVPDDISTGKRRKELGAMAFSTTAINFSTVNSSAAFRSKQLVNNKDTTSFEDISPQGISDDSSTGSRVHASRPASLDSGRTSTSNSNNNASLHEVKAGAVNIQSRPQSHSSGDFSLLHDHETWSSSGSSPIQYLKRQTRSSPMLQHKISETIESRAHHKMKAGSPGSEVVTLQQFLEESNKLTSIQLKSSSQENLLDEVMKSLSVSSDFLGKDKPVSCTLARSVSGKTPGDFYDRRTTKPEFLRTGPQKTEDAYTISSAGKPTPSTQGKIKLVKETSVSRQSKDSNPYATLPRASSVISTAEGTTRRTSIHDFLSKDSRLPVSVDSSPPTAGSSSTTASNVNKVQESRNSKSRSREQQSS
UniProt P25911: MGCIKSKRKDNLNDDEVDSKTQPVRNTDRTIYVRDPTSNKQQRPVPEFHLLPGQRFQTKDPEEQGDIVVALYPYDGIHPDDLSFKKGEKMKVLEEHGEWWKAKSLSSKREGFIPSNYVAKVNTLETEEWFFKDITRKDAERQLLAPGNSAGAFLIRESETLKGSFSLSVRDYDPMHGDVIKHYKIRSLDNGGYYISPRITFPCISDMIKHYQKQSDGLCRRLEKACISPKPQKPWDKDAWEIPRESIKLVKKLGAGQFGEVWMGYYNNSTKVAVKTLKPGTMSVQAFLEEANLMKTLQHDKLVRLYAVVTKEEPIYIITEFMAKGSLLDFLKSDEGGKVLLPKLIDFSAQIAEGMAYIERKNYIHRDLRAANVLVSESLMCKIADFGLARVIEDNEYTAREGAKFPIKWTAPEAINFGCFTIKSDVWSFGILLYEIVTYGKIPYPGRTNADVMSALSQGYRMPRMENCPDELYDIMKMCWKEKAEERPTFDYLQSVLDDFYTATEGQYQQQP
UniProt P06240: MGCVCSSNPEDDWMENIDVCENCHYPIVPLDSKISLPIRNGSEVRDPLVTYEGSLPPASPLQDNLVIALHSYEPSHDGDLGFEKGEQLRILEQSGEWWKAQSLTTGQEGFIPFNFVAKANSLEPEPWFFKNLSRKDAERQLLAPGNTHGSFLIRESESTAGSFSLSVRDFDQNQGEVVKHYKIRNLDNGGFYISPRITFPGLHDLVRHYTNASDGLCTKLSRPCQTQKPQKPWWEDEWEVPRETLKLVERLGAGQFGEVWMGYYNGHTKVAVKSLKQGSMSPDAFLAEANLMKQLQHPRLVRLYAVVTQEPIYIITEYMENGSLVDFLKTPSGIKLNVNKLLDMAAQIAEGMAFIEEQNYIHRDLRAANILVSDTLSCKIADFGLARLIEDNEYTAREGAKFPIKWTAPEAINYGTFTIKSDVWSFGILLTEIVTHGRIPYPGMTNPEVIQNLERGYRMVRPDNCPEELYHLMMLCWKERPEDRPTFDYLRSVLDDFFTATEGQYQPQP
UniProt P39688: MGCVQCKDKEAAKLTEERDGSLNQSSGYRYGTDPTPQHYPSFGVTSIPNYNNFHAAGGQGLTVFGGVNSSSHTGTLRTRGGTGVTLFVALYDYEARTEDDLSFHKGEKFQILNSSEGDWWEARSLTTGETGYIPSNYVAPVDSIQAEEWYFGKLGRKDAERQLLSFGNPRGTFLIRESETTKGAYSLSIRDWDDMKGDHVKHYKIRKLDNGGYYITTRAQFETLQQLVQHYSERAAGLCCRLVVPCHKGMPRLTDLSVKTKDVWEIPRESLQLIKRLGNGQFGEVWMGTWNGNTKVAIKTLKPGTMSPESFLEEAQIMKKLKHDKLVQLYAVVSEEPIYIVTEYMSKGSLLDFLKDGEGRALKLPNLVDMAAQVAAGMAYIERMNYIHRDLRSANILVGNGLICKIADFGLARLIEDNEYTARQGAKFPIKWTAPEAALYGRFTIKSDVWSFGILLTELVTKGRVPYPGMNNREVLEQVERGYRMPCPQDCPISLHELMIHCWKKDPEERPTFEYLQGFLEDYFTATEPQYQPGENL


What was measured:
[1] = molecular target: T1, Nephrin (mouse (endogenous in MIN6 and mouse islets)); assay: co-IP; immunoprecipitation with anti-Nephrin antibody or control IgG from lysate (1 mg) of control (Ctrl-shRNA) MIN6 cells; blots with the indicated antibodies
[2] = molecular target: GIV protein (Girdin) (mouse (endogenous in MIN6 and mouse islets)) (UniProt Q5SNZ0); assay: co-IP; immunoprecipitation from mouse pancreatic islet lysate (20 mM Tris-HCl pH 7.5, 150 mM NaCl, 1 mM MgCl2, 1% Triton X-100), Protein G-Sepharose; blot with anti-GIV and anti-Nephrin
[3] = molecular target: GIV protein (Girdin) (mouse (endogenous in MIN6 and mouse islets)) (UniProt Q5SNZ0); assay: co-IP; immunoprecipitation with anti-GIV antibody or control IgG and Protein G-Sepharose from MIN6 cell lysate (20 mM Tris-HCl pH 7.5, 150 mM NaCl, 1 mM MgCl2, 1% Triton X-100); blot with anti-Nephrin; low and high glucose compared (Fig. S2B)

binding [1] | binding [2] | binding [3] | Molecule
no binding | – | – | Lyn (from UniProt P25911 1-512) (enzyme)
no binding | – | – | Lck (from UniProt P06240 1-509) (enzyme)
binds | – | – | GIV protein (Girdin) (from UniProt Q5SNZ0 1-1873)
no binding | – | – | Fyn (from UniProt P39688 1-537) (enzyme)
– | binds | binds | Nephrin (protein, UniProt Q9QZS7 37-1256) QSPVPTSAPRGFWALSENLTVVEGSTVKLWCGVRAPGSVVQWAKDGLLLGPNPKIPGFPRYSLEGDSAKGEFHLLIEACDLSDDAEYECQVGRSELGPELVSPSVILSILVSPKVLQLTPEAGSTVTWVAGQEYVVTCVSGDAKPAPDIIFIQGGRTVEDVSSSVNEGSEEKLFFTEAEARVTPQSSDNGQLLVCEGSNPALATPIKASFTMNILFPPGPPVIDWPGLNEGHVRAGENLELPCIARGGNPPATLQWLKNGKPVSIAWGTEHAQAVAHSVLVMTVRPEDHGARLSCQSYNSVSAETQERSITLQVTFPPSAVTILGSTSQSENKNVTLCCLTKSSRPRVLLRWWLGGRQLLPTDETVMDGLHGGHISMSNLTLLVKREDNGLSLTCEAFSDAFSKETFKKSLTLNVKYPAQKLWIEGPPEGQSIRTGTRVRLVCLAIGGNPEPSLTWLKDSRPVNDPRQSQEPRRVQLGSVEKSGSTFSRELVLIIGPPDNLAKFSCKAGQLSASTQLVVQFPPTNLTILANSSALRPGDALNLTCVSISSNPPVNLSLDKEGERLDDVAAKPQSAPFKGSAASRSVFLRVSSRDHGHRVTCRAHSEALRETVSSFYRLNVLYPPEFLGEQVRAVTVVEQGQALLPVSVSANPAPEAFNWTFRGYRLSPAGGPRHRILSGGALQLWNVTRADDGFYQLHCQNSEGTAEALLKLDVHYAPTIRALKDPTEVNVGGSVDIVCTVDANPILPEMFSWERLGEDEEELNLDDMEKMSKGSTGRLRIRQAKLSQAGAYQCIVDNGVAPAARGLVRLVVRFAPQVDHPTPLTKVAAAGDSTSSATLHCRARGVPNIDFTWTKNGVPLDLQDPRYTEHKYHQGVVHSSLLTIANVSAAQDYALFKCTATNALGSDHTNIQLVSISRPDPPLGLKVVSVSPHSVGLEWKPGFDGGLPQRFQIRYEALESPGFLYMDVLPAQATTFTLTGLKPSTRYRIWLLASNALGDSGLTDKGIQVSITTPGLDQAPEDTDQPLPTEQPPGPPRLPLLPVLFAVGGLLLLSNASCVGGLLWRRRLRRLAEEISEKTEAGSEEDRIRNEYEESQWTGDRDTRSSTVSTAEVDPHYYSMRDFSPQLPPTLEEVSYRQAFTGIEDEDMAFPGHLYDEVERVYGPPGVWGPLYDEVQMDPYDLRWPEVKYEDPRGIYDQVAADMDAGEPGSLPFELRGHLV
